Several values for one entry are separate records, joined by “and”; a condition that tells them apart may be missing. Equal values may be shown once. The shares of active, inactive and inconclusive entries below differ from those in the screen. A potency beside an inconclusive call is a rough fit, not a confirmed value. Activity calls are given as the source filed them. Unless noted, calls follow the shape of the dose curve; as a rule, active = well fitted curve in the direction sought with a large enough effect in the repeat runs; inconclusive = weak or mixed curves; inactive = no such curve, though single readings can be large; an effect the other way counts as inactive or inconclusive.
What was measured:
[1] = qHTS assay to identify small molecule antagonists of the androgen receptor (AR) signaling pathway using the MDA cell line - cell viability counter screen (AID 743041; also: nearly all actives have a fitted effect of over 45% in size; as to viability change, negative = cytotoxic: % is scaled to controls: 0 for no effect and ±100 for the full control effect); details: MDA-kb2 viability, CellTiter-Fluor, 16 h, cells co-treated with R1881 androgen agonist; viability change, negative = cytotoxic: at 70.3 µM (top of the series) unless noted
Summary of the method: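 Same-well cytotoxicity was assessed by CellTiter-Fluor in MDA-kb2 AR-luc cells after 16 h of compound treatment under R1881 agonism.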

[2] = qHTS assay to identify small molecule antagonists of the thyroid receptor (TR) signaling pathway - cell viability counter screen (AID 743064); details: GH3.TRE-Luc viability, CellTiter-Fluor, 24 h; activity change, negative = cytotoxic: at 70.3 µM (top of the series) unless noted; also: nearly all actives have a fitted effect of over 50% in size; as to activity change, negative = cytotoxic: % is scaled to controls: 0 for no effect and ±100 for the full control effect
Summary of the method: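 GH3.TRE-Luc rat pituitary cells dosed after 4 hr plating, co-stimulated with T3 at 1 nM final, incubated 23.5 h at 37 C. Viability measured in the same wells by CellTiter-Fluor fluorescence after 30 min further at 37 C.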

[3] = target: Estrogen receptor (Homo sapiens) (UniProt P03372); test: qHTS assay to identify small molecule antagonists of the estrogen receptor alpha (ER-alpha) signaling pathway (AID 743069; active = well fitted curve in the direction sought with a large enough effect in the signal ratio in the repeat runs, not every such curve was filed as active; inconclusive = weak or mixed curves, or effect the other way; inactive = no such curve, though single readings can be large or run the other way; the % refers to the signal ratio); details: HEK293 ER-alpha-UAS-bla, beta-lactamase ratio, antagonist mode; activity, negative = inhibition: at 69.4 µM (top of the series) unless noted
Summary of the method: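 Reporter cells (ER-alpha-bla, HEK293 background) are conditioned overnight in stripped-serum medium (2% charcoal-stripped FBS). Compound and 17beta-estradiol exposure runs 18 hr at 37C, 5% CO2.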

[4] = qHTS assay to identify small molecule antagonists of the estrogen receptor alpha (ER-alpha) signaling pathway - cell viability counter screen (AID 743074; calls by dose curve;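 also: HEK293 cells carrying ER-alpha-UAS-bla reporter stimulated with 17beta-estradiol; nearly all actives have a fitted effect of over 45% in size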); details: ERalpha-bla HEK293 viability, CellTiter-Glo luminescence, 18 h; series mostly up to 69.4 µM
[5] = qHTS assay to identify small molecule antagonists of the thyroid receptor (TR) signaling pathway (AID 743065); details: GH3.TRE-Luc, T3-stimulated luciferase inhibition, 23.5 h; series mostly up to 70.3 µM; also: nearly all actives have a fitted effect of over 55% in size
Summary of the method: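 GH3.TRE-Luc rat pituitary cells (two TREs driving luciferase) were dosed with compound, then stimulated with 1 nM T3 (final) for 23.5 h at 37 C. ONE-Glo luminescence was the read-out, with CellTiter-Fluor fluorescence as the cytotoxicity counter-screen.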

[6] = system: thyroid hormone receptor (rat, GH3 cells); test: qHTS assay to identify small molecule agonists of the thyroid receptor (TR) signaling pathway (AID 743066; calls by dose curve; as to activation: % is scaled to controls: 0 for no effect and ±100 for the full control effect); details: GH3.TRE-Luc cells, TR agonist luciferase, 24 h; activation: at 83.9 µM (top of the series) unless noted
[7] = target: Estrogen receptor (Homo sapiens) (UniProt P03372); test: qHTS assay to identify small molecule agonists of the estrogen receptor alpha (ER-alpha) signaling pathway (AID 743075; calls by dose curve;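 also: HEK293 GripTite cells with ER-alpha and UAS-driven beta-lactamase reporter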; as to activation: % is scaled to controls: 0 for no effect and ±100 for the full control effect); details: HEK293 ER-alpha-UAS-bla, beta-lactamase FRET ratio, 18 h; series mostly up to 70.1 µM
Potency is read from the fitted curve at half-maximal effect; tags tell the direction and shape of the fitted curve or compound fluorescence and quenching.

Chain of UniProt P03372 (P03372 whole entry, looked up): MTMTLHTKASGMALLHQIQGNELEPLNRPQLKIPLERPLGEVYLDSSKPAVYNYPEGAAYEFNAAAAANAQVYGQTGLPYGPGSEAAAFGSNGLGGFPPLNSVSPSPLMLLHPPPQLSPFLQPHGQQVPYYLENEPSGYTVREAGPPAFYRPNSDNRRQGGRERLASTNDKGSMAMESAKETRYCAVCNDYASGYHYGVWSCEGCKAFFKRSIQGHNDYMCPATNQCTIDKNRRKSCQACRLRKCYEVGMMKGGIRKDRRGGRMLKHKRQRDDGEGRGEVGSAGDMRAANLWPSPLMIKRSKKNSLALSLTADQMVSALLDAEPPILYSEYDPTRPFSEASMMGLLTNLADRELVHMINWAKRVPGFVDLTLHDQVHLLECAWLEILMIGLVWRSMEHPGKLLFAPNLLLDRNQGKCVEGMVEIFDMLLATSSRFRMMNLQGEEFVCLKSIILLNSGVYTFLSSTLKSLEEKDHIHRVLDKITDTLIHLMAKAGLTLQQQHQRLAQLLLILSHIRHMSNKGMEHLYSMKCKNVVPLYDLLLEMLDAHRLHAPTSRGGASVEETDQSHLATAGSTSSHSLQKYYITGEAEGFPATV

Question: With O=C(CCNNC(=O)c1ccncc1)NCc1ccccc1 as the compound, how does the Potency [1] read?
Answer: inactive

Question: And the Potency [2]?
Answer: inactive

Question: For CCOC(=O)c1ccc(N(C)C)cc1, which Potency [1] is on record?
Answer: inactive

Question: What about the Potency [2] of the same compound?
Answer: inconclusive: 68.6 µM [rising, single point]

Question: What about the Potency [3] of the same compound?
Answer: inconclusive: 34.7 µM [activator, partial curve, poor fit]

Question: With Cc1oc2c(NC(=O)c3c(Cl)cccc3Cl)cccc2c1C(C)(C)O as the compound, how does the Potency [1] read?
Answer: inconclusive: 30.6 µM [cytotoxic, partial curve]

Question: What about the Potency [2] of the same compound?
Answer: active: 24.3 µM

Question: What about the Potency [3] of the same compound?
Answer: active: 43.6 µM [inhibitor]

Question: And the Potency [4]?
Answer: inconclusive: 17.4 µM [cytotoxic, partial curve, poor fit]

Question: With NC1CCN(c2cccc(Cl)n2)CC1 as the compound, how does the Potency [1] read?
Answer: inactive

Question: And the Potency [2]?
Answer: inconclusive: 29.8 µM [cytotoxic]

Question: And the Potency [5]?
Answer: inconclusive: 26.6 µM [inhibitor]

Question: With COc1cc([N+](=O)[O-])ccc1N as the compound, how does the Potency [1] read?
Answer: inconclusive: 61.1 µM [cytotoxic, partial curve]

Question: What about the Potency [2] of the same compound?
Answer: inconclusive: 38.6 µM [cytotoxic, partial curve]

Question: What about the Potency [6] of the same compound?
Answer: inactive

Question: What about the Potency [3] of the same compound?
Answer: active: 6.92 µM [inhibitor]

Question: What does the source list for N#C/C(=C1/SC[C@@H](c2ccc(Cl)cc2Cl)S1)n1ccnc1?
Answer: Potency [1]: inconclusive: 33.5 µM [cytotoxic, single point]; Potency [2]: inconclusive: 29.8 µM [cytotoxic, single point] and inconclusive: 33.5 µM [cytotoxic, single point] and inconclusive: 33.5 µM [cytotoxic, partial curve]; Potency [6]: inconclusive: 15 µM [inhibitor, partial curve, poor fit]

Question: Which results are given for CCN(CC)CCCC(C)Nc1ccnc2cc(Cl)ccc12 (centres undefined)?
Answer: Potency [1]: inconclusive: 24.8 µM [cytotoxic, partial curve]; Potency [2]: inconclusive: 13.3 µM [cytotoxic, partial curve, poor fit]

Question: Which Potency [1] does the source give for COCCCCCCCCOCCC[Si](C)(O[Si](C)(C)C)O[Si](C)(C)C here?
Answer: active: 21.7 µM

Question: What about the Potency [2] of the same compound?
Answer: inactive

Question: And the Potency [5]?
Answer: inconclusive: 19.3 µM [inhibitor, partial curve, poor fit]

Question: What about the Potency [3] of the same compound?
Answer: inconclusive: 9.77 µM [rising, full curve]

Question: What about the Potency [4] of the same compound?
Answer: inconclusive: 19.5 µM [cytotoxic, partial curve, poor fit]

Question: What about the Potency [7] of the same compound?
Answer: inconclusive: 6.92 µM [falling, full curve]

Question: Which Potency [1] does the source give for CC(C)C[C@H]1C(=O)N2CCC[C@H]2[C@]2(O)O[C@](NC(=O)[C@@H]3C=C4c5cccc6[nH]c(Br)c(c56)C[C@H]4N(C)C3)(C(C)C)C(=O)N12 here?
Answer: inconclusive: 31.2 µM [cytotoxic, partial curve, poor fit]

Question: What about the Potency [2] of the same compound?
Answer: inconclusive: 29.8 µM [cytotoxic, partial curve] and inconclusive: 16.4 µM [cytotoxic, partial curve, poor fit]

Question: What about the Potency [5] of the same compound?
Answer: active: 13.3 µM and active: 16.4 µM

Question: What about the Potency [4] of the same compound?
Answer: inactive

Question: Which results are given for CCCCCC(=O)O?
Answer: viability change, negative = cytotoxic [1]: inconclusive: 30.8%; Potency [2]: inconclusive: 0.545 µM [rising, single point]; Potency [7]: inactive

Question: For CC(C)CCCCCCOC(=O)CCCCC(=O)OCCCCCCC(C)C, which Potency [1] is on record?
Answer: inactive

Question: And the Potency [2]?
Answer: inconclusive: 24.3 µM [rising, single point]

Question: Which results are given for CC(=O)C(=O)O?
Answer: Potency [1]: inactive; Potency [2]: inconclusive: 27.7 µM [rising, partial curve]

Question: With Oc1ccc(O)c2c(O)cccc12 as the compound, how does the Potency [1] read?
Answer: inconclusive: 60.6 µM [cytotoxic, partial curve, poor fit]

Question: What about the Potency [2] of the same compound?
Answer: inconclusive: 1.52 µM [cytotoxic, full curve, poor fit]

Question: Which Potency [1] does the source give for CC1=CC(=C(c2ccc(N)cc2)c2ccc(N)cc2)C=CC1=N here?
Answer: active: 7.5 µM and inconclusive: 3.47 µM [cytotoxic, single point]

Question: What about the Potency [2] of the same compound?
Answer: inconclusive: 3.47 µM [cytotoxic]

Question: And the Potency [5]?
Answer: inconclusive: 3.47 µM [inhibitor]

Question: And the activation [6]?
Answer: inconclusive: -7.33% [phenotype inactive]

Question: What about the Potency [4] of the same compound?
Answer: inconclusive: 7.56 µM [cytotoxic, full curve] and inconclusive: 22.1 nM [cytotoxic, full curve, poor fit]

Question: Which Potency [1] does the source give for Cc1nc2sccn2c(=O)c1CCN1CCC(=C(c2ccc(F)cc2)c2ccc(F)cc2)CC1 here?
Answer: inconclusive: 33.5 µM [cytotoxic]

Question: And the Potency [2]?
Answer: active: 29.8 µM

Question: And the Potency [5]?
Answer: active: 26.6 µM

Question: What about the activation [6] of the same compound?
Answer: inconclusive: -8.08% [phenotype inactive]
